In PubChem BioAssay AID651815 (National Center for Advancing Translational Sciences (NCATS), 2012):
Several values for one entry are separate records, joined by “and”; a condition that tells them apart may be missing. Equal entries are not always repeated. Hit rate of the full screen: of about 2,100 compounds, about 1,100 (52%) were called active. The set was probably picked from earlier hits. This list was built around the results that the source calls inconclusive (neither active nor inactive); the mix of calls is not that of the screen. The call rests on the fitted dose curve; in most records, active means well fitted inhibition curve with a large enough effect; inconclusive means small, poorly fitted or top-dose-only effect; inactive means no such curve, though single readings can be large or run the other way. No potency is given beside an inconclusive call; the fits are too rough.

target: DNA dC->dU-editing enzyme APOBEC-3F (Homo sapiens) (UniProt Q8IUX4); assay: qHTS for inhibitors of Vif-A3F interactions: Cherry picks counterscreen; conditions: HeLa A3F-eYFP/Vif cells, eYFP fluorescence, 24 h; series mostly up to 46.1 µM; further: nearly all actives have a fitted effect of over 65% in size
How it was run: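 HeLa cells stably expressing A3F-eYFP and Vif, cultured overnight, then treated 24 h at 37 degrees C with compounds at several concentrations; yellow fluorescence (488 nm Ex/500-530 nm Em) imaged on Acumen; MG132 positive control.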
Potency means the concentration at half of the fitted maximal effect; tags describe the fitted curve by direction and shape.

Sequence of UniProt Q8IUX4 (Q8IUX4 whole entry, looked up): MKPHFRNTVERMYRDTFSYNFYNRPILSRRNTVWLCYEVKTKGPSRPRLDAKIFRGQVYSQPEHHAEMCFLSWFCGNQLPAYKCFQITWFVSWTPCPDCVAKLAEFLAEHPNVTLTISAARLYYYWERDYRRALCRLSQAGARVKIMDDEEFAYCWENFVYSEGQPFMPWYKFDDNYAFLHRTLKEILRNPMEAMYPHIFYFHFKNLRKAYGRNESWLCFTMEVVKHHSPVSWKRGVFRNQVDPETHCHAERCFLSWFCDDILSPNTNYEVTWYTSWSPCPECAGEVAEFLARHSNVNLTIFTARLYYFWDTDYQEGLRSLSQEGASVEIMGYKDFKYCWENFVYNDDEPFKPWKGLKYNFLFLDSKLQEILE

SMILES	Potency
Cc1cc(C(F)(F)F)c2c(N)c(C(=O)Nc3cc(C)on3)sc2n1	inconclusive [inhibitor, partial curve, poor fit]
S=C(Nc1cccc2ccccc12)NN1CCCCCC1	inactive
CN1C(=O)N(C)c2ccc(C=O)c3cccc1c23	inactive
O=C(c1ccccc1)C(CN1CCCCC1)c1ccccc1 (configuration not stated)	inconclusive [inhibitor, single point]
O=C(CN1c2cccc3cccc(c23)S1(=O)=O)Nc1ccc(S(=O)(=O)N2CCOCC2)cc1	inactive
Cc1ccc(NC2=C(Cl)C(=O)N(C3CCCCC3)C2=O)cc1	inactive
COc1cc(S(=O)(=O)Nc2ccccc2N2CCCCC2)ccc1NC(C)=O	inconclusive [inhibitor, full curve]
C=CCn1c(SCc2c(C)noc2C)nc2cc(C(=O)O)ccc2c1=O	active: 17.7 µM
Cc1ccc(-c2cc(NC=O)c3ncc(-c4cccc(C(=O)N(C)C)c4)n3c2)cc1	inconclusive [inhibitor, single point]
COc1ccc(NC(=O)CN2C(=O)C3(SCC(=O)N3c3ccccc3)c3ccccc32)cc1Cl (configuration not stated)	inactive
C/C(=N/Nc1ccc([N+](=O)[O-])cc1)c1c[nH]c2ccccc12	inactive
O=[N+]([O-])/C=C\c1ccc(N2CCCC2)c(F)c1	inconclusive [inhibitor, single point]
Cc1cccc(C(=O)NC(=S)N2CCc3ccccc3C2)c1	inactive
CS(=O)(=O)N(CC(=O)N1CCN(Cc2ccccc2)CC1)c1ccccc1F	inactive
COc1cc(C(=O)NCCOc2cc(C)cc(C)c2)c(Br)c(OC)c1OC	inconclusive [inhibitor, single point]
CC(=O)c1c(C)[nH]c(C(=O)Nc2ccc(Cl)cc2F)c1C	inactive
Cn1cc(C2=C(c3ccc(Cl)cc3Cl)C(=O)NC2=O)c2ccccc21	active: 14.6 µM and active: 20.6 µM
Cc1nc(C)c(C(=O)OCC(=O)Nc2ccccc2SCC#N)s1	inconclusive [inhibitor, single point]
CCOc1ccccc1C1CC(c2cccs2)=NN1S(C)(=O)=O (configuration not stated)	inconclusive [inhibitor, single point]
CCOc1ccc(-c2cc(C(F)(F)F)c(C#N)c(SCC(=O)Nc3ccccc3)n2)cc1	inconclusive [inhibitor, partial curve]
CC(C)(C)NCC(=Cc1ccccc1)C(=O)c1ccccc1	inconclusive [inhibitor, single point]
CC(O)CN(CC(C)O)c1ccc2c(c1)Cc1cc([N+](=O)[O-])ccc1-2 (configuration not stated)	active: 2.31 µM
Cc1ccc(N=C2NC(=O)CC(C(=O)Nc3ccc4c(c3)OCO4)S2)cc1 (configuration not stated)	inconclusive [inhibitor, single point]
CN1C(=O)c2cccc(NCCCN3C(=O)c4ccccc4C3=O)c2C1=O	active: 18.4 µM
Cc1ccc(NC(=O)/C=C/c2ccc([N+](=O)[O-])s2)c(C)c1	active: 18.4 µM
O=C(CC1CC2CCC1C2)Nc1nc(-c2ccccn2)cs1 (configuration not stated)	inactive

SMILES	Potency
O=C(CN1C(=O)S/C(=C\c2cc(Cl)c(O)c(Cl)c2)C1=O)Nc1ccccc1	inconclusive [inhibitor, single point]
CCC(C)[C@H](NC(=O)N1CC(=O)Nc2ccccc21)C(=O)Nc1ccccc1C (some centres not stated)	active: 15.8 µM
CN(C)C=Nc1c(Br)cc(Br)c2nonc12	active: 9.2 µM
CCN(CC)S(=O)(=O)c1cc([N+](=O)[O-])ccc1N=Nc1c(O)[nH]c2ccccc12	inconclusive [inhibitor, single point]
CN1CCN(c2ccc([N+](=O)[O-])cc2C(=O)c2ccc(Br)cc2)CC1	active: 4.98 µM
N#C/C(=C/c1ccc(N2CCCCCC2)o1)c1ccc(Cl)cc1	active: 3.66 µM
O=CNc1ccc2c3c(cccc13)-c1ccccc1-2	inconclusive [inhibitor, single point]
Cc1cccc(CSc2nc(-c3cccs3)ccc2C#N)c1	inactive
O=C(CN1c2ccccc2Sc2ccccc21)NNC(=O)Nc1cccc(Cl)c1	inconclusive [inhibitor, full curve, poor fit]
Cc1ccc(CN(C(=O)c2ccccc2F)c2ccccn2)o1	inactive
CC(/C=N/NC(=O)c1cc(-c2ccc(C)s2)[nH]n1)=C\c1ccccc1	inconclusive [inhibitor, full curve]
CC(=O)Nc1ccc(NC(=O)C/C(C)=N/NC(N)=S)cc1	inactive
CC(C)n1cc(/C=C2\NC(=O)N(c3cccc(Cl)c3)C2=O)c2ccccc21	inconclusive [inhibitor, single point]
Cc1ccc(C(=O)CCC(=O)OCC(=O)Nc2ccccc2SCC#N)cc1	inconclusive [inhibitor, single point]
O=C(NC1C/C(=N/O)c2cc3c(cc21)OCO3)C(F)(F)F (configuration not stated)	inactive
CC1(C)COC(Cn2c3ccccc3c3ccccc32)O1 (configuration not stated)	inconclusive [inhibitor, single point]
Cc1ccc(CNC(=O)Cn2cc(C(=O)c3ccc(Cl)cc3)c(=O)c3ccc(C)nc32)cc1	inconclusive [inhibitor, single point]
CCN(CC)c1ccc2cc(-c3nc(-c4ccc(Cl)cc4Cl)cs3)c(=O)oc2c1	inactive
NNC(=O)c1cc2sccc2s1	inactive
CCCC(=O)NC(c1ccc(OC)cc1)c1c(O)ccc2ccccc12 (configuration not stated)	inconclusive [inhibitor, single point]
CCCCOc1ccc(/C=C/C2=CC(C)(C)NC(=S)N2)cc1OCC	inactive
CCOC(=O)c1cc(-c2ccccc2)sc1NC(=S)Nc1cc(C)ccn1	active: 18.4 µM
CC(CC(=O)Nc1ccc2c(c1)c(=O)n(C)n2Cc1ccc(F)cc1)c1ccccc1 (configuration not stated)	inconclusive [inhibitor, partial curve]
C=CCN1C(=O)/C(=C2/Sc3ccc(OC)cc3N2C)SC1=Nc1cccc(O)c1	inconclusive [inhibitor, single point]
COc1ccc2nc(NC(=S)NC(=O)c3ccco3)sc2c1	inactive
N#CCc1ccc(NC(=O)/C=C/c2ccc([N+](=O)[O-])o2)cc1	active: 11.6 µM

SMILES	Potency
COc1cc(C2Nc3ccc4ncccc4c3C3=C2C(=O)CCC3)ccc1O (configuration not stated)	active: 7.04 µM
COc1ccc(/C=C/C(=O)c2ccc([N+](=O)[O-])o2)cc1	inconclusive [inhibitor, single point]
CCCOc1ccccc1C1CC(=O)Nc2cc3c(cc21)OCO3 (configuration not stated)	active: 3.96 µM
COc1ccc(/C=N/NC(=O)c2cccnc2)cc1CSc1ccccn1	active: 3.14 µM
COC(=O)c1ccc(Cl)cc1NC(=O)N1CC=C(c2c[nH]c3ccccc23)CC1	inconclusive [inhibitor, single point]
Cc1ccc2nsnc2c1NC(=O)c1ccc(-c2cc(Cl)ccc2Cl)o1	active: 14 µM
COc1ccc(/C=N/NC(=O)c2ccccc2Cl)cc1CSc1nc2ccccc2s1	active: 4.44 µM
CC(=O)c1cccc(-c2ccnc3c2CC(C(=O)NCc2ccc(F)c(F)c2)O3)c1 (configuration not stated)	active: 3.96 µM
O=C(N/N=C/c1c[nH]c2ccccc12)C1COc2ccccc2O1 (configuration not stated)	inconclusive [inhibitor, single point]
Cc1cccc(-c2noc(-c3ccc(NCc4ccco4)c([N+](=O)[O-])c3)n2)c1	active: 14.6 µM
O=[N+]([O-])c1ccc(C2=Nc3cc(Cl)ccc3OC2)cc1	inactive
CCOC(=O)C(C(=O)OCC)C(Nc1cccc(Br)c1)c1ccccc1 (configuration not stated)	inconclusive [inhibitor, single point]
Clc1ccccc1C1CC(c2ccccc2)=Nc2ccccc2N1 (configuration not stated)	inactive
Cc1ccc(C(=O)NC2c3ccccc3-c3ccccc32)cc1	active: 3.96 µM
CCOC(=O)c1ccc(NC(=O)Cn2ncc(Cl)c(Cl)c2=O)cc1	inconclusive [inhibitor, full curve]
COc1ccccc1N1CCN(C(=O)c2cc(=O)c3cc(C)ccc3o2)CC1	inconclusive [inhibitor, partial curve]
O=C(CSc1nc2ccccc2s1)c1cc2ccccc2o1	inactive
CC1=CC(C)(C)Nc2ccc(OC(=O)CCN3C(=O)c4ccccc4C3=O)cc21	inconclusive [inhibitor, single point]
CC(=O)Nc1ccc(CC(=O)NCCC(c2ccccc2)c2ccccc2)cc1	inconclusive [inhibitor, single point]
C/C(=N\NC(=S)NC(C)C)c1ccc(C(C)(C)C)cc1	inactive
CCCCN1C(=O)/C(=C/C=C2\Oc3ccccc3N2CC)SC1=S	inactive
CCOc1ccc(CCNC(=O)c2ccc(Cn3c(=O)c4cccn4c4cccnc43)cc2)cc1	inconclusive [inhibitor, single point]
COc1ccc(C2=NOC(C(=O)NCc3cccs3)C2)cc1OC (configuration not stated)	inconclusive [inhibitor, full curve]
c1ccc(-c2cccc(-c3ccccn3)n2)nc1	inconclusive [inhibitor, single point]
COc1ccccc1C(=O)Nc1ccc2c(c1)CN(C(=O)CSC)CC2	inconclusive [inhibitor, partial curve]
